Test results as given in publication PMC9732051, “Divergent self-association properties of paralogous proteins TRIM2 and TRIM3 regulate their E3 ligase activity” (Nature Communications, 2022).
Results are given in words; binding and its absence hold for the method and conditions named. For some assays here: In cells and extracts the contact can be indirect. Some binding calls cover weakened binding; strength is not graded here. For some assays here: Where a sequence is shown, tags or fusion partners need not be part of it. Values belong to the binder of their own block, whether it stands above or below them.

Assays:
[1] = biological target: human TRIM3 RING (2-95) (human) (UniProt O75382); assay: SEC-MALLS; Superdex 75 or 200 10/300 GL Increase; 20 mM HEPES pH 7.5, 150 mM NaCl, 0.5 mM TCEP, 3 mM NaN3; 25 °C; 100 μl samples at multiple concentrations (5, 3, 2 and 1 mg/ml in Fig. 1b); both purified
[2] = biological target: human TRIM3 RING (2-95) (human) (UniProt O75382); assay: SAXS; SEC-SAXS at SWING (SOLEIL); RING constructs injected at 10 mg/ml (ca. 1 mM) on a Bio SEC-3 100 Å column, 15 °C; both purified
[3] = biological target: T1, TRIM3-FLAG full length (human) (UniProt O75382); assay: co-IP; EGFP-TRIM2 and FLAG-TRIM3 constructs overexpressed in HEK293T; IP with anti-GFP and Protein A/G beads or with FLAG M2 beads; 0.5% IGEPAL, 150 mM NaCl, 50 mM Tris-HCl pH 7.5, 5 mM MgCl2; for truncation mutants cells treated with 10 μM MG132 6 h
T1 sequence: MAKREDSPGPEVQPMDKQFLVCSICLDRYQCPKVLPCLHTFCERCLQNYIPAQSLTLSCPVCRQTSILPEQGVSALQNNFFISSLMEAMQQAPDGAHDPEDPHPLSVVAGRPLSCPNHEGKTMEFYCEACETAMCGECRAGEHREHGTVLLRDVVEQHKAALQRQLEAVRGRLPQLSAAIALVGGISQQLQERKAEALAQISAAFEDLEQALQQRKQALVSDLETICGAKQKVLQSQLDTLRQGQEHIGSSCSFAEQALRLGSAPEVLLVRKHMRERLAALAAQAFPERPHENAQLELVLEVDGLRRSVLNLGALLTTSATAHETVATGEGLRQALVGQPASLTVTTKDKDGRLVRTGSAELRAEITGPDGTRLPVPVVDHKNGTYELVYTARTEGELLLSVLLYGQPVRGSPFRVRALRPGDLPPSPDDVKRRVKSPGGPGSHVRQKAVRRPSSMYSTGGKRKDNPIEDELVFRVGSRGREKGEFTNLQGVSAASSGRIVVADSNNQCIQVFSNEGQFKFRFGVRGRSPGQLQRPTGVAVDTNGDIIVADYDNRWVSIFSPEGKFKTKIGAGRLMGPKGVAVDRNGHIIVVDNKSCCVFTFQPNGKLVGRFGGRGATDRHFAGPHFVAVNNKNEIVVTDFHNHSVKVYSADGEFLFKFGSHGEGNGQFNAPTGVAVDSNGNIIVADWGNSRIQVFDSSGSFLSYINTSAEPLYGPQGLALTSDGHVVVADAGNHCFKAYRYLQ

[4] = biological target: T2, endogenous TRIM3 (human (endogenous in LN229)) (UniProt O75382); assay: co-IP; endogenous proteins from LN229 glioblastoma cells; IP with anti-TRIM2 or anti-TRIM3 and Protein A/G beads, control IP with FLAG antibody; 0.5% IGEPAL, 150 mM NaCl, 50 mM Tris-HCl pH 7.5, 5 mM MgCl2
T2 sequence: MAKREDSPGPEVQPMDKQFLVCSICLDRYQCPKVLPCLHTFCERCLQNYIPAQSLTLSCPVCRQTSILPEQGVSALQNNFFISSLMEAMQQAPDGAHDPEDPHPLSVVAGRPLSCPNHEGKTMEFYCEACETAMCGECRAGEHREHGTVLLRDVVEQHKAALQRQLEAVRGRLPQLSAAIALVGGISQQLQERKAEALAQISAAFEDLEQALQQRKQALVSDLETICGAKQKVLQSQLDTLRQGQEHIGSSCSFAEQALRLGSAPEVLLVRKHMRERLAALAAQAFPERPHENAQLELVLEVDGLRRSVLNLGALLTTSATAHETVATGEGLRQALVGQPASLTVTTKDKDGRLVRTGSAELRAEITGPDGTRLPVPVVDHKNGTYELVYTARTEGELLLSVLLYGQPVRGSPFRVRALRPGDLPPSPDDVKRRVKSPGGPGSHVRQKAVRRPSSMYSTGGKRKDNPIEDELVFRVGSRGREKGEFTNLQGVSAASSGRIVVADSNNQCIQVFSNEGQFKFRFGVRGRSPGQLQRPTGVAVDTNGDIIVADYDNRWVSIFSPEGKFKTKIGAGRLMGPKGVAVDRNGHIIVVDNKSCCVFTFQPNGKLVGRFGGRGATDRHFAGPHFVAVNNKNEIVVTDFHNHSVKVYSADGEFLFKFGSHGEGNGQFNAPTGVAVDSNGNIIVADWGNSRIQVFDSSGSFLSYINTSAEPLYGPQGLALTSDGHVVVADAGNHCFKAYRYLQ

[5] = biological target: human TRIM3 RING-B-box2 (2-153) (human) (UniProt O75382); assay: SEC-MALLS; Superdex 75 or 200 10/300 GL Increase; 20 mM HEPES pH 7.5, 150 mM NaCl, 0.5 mM TCEP, 3 mM NaN3; 25 °C; 100 μl samples at multiple concentrations (5, 3, 2 and 1 mg/ml in Fig. 1b); both purified

- binding [1]: no binding (tested: 1-5 mg/ml)
- binding [2]: no binding (tested: 10 mg/ml (ca. 1 mM))
B1: human TRIM3 RING (2-95) (domain or fragment)
chain: GPGAKREDSPGPEVQPMDKQFLVCSICLDRYQCPKVLPCLHTFCERCLQNYIPAQSLTLSCPVCRQTSILPEQGVSALQNNFFISSLMEAMQQAPDG
notes: tripeptide Gly-Pro-Gly left at the N-terminus by 3C protease cleavage; human TRIM3, RING construct, residues 2-95; also called T3R; source: E. coli BL21 (DE3), purified (Ni-NTA, His6 cleaved by HRV 3C, SEC); not shown: His6, N-terminal, cleaved

- binding [3]: binds
B2: EGFP-TRIM2 full length (protein, UniProt Q9C040 1-744)
chain: MASEGTNIPSPVVRQIDKQFLICSICLERYKNPKVLPCLHTFCERCLQNYIPAHSLTLSCPVCRQTSILPEKGVAALQNNFFITNLMDVLQRTPGSNAEESSILETVTAVAAGKPLSCPNHDGNVMEFYCQSCETAMCRECTEGEHAEHPTVPLKDVVEQHKASLQVQLDAVNKRLPEIDSALQFISEIIHQLTNQKASIVDDIHSTFDELQKTLNVRKSVLLMELEVNYGLKHKVLQSQLDTLLQGQESIKSCSNFTAQALNHGTETEVLLVKKQMSEKLNELADQDFPLHPRENDQLDFIVETEGLKKSIHNLGTILTTNAVASETVATGEGLRQTIIGQPMSVTITTKDKDGELCKTGNAYLTAELSTPDGSVADGEILDNKNGTYEFLYTVQKEGDFTLSLRLYDQHIRGSPFKLKVIRSADVSPTTEGVKRRVKSPGSGHVKQKAVKRPASMYSTGKRKENPIEDDLIFRVGTKGRNKGEFTNLQGVAASTNGKILIADSNNQCVQIFSNDGQFKSRFGIRGRSPGQLQRPTGVAVHPSGDIIIADYDNKWVSIFSSDGKFKTKIGSGKLMGPKGVSVDRNGHIIVVDNKACCVFIFQPNGKIVTRFGSRGNGDRQFAGPHFAAVNSNNEIIITDFHNHSVKVFNQEGEFMLKFGSNGEGNGQFNAPTGVAVDSNGNIIVADWGNSRIQVFDGSGSFLSYINTSADPLYGPQGLALTSDGHVVVADSGNHCFKVYRYLQ

- binding [4]: binds
B3: endogenous TRIM2 (protein, UniProt Q9C040 1-744)
chain: MASEGTNIPSPVVRQIDKQFLICSICLERYKNPKVLPCLHTFCERCLQNYIPAHSLTLSCPVCRQTSILPEKGVAALQNNFFITNLMDVLQRTPGSNAEESSILETVTAVAAGKPLSCPNHDGNVMEFYCQSCETAMCRECTEGEHAEHPTVPLKDVVEQHKASLQVQLDAVNKRLPEIDSALQFISEIIHQLTNQKASIVDDIHSTFDELQKTLNVRKSVLLMELEVNYGLKHKVLQSQLDTLLQGQESIKSCSNFTAQALNHGTETEVLLVKKQMSEKLNELADQDFPLHPRENDQLDFIVETEGLKKSIHNLGTILTTNAVASETVATGEGLRQTIIGQPMSVTITTKDKDGELCKTGNAYLTAELSTPDGSVADGEILDNKNGTYEFLYTVQKEGDFTLSLRLYDQHIRGSPFKLKVIRSADVSPTTEGVKRRVKSPGSGHVKQKAVKRPASMYSTGKRKENPIEDDLIFRVGTKGRNKGEFTNLQGVAASTNGKILIADSNNQCVQIFSNDGQFKSRFGIRGRSPGQLQRPTGVAVHPSGDIIIADYDNKWVSIFSSDGKFKTKIGSGKLMGPKGVSVDRNGHIIVVDNKACCVFIFQPNGKIVTRFGSRGNGDRQFAGPHFAAVNSNNEIIITDFHNHSVKVFNQEGEFMLKFGSNGEGNGQFNAPTGVAVDSNGNIIVADWGNSRIQVFDGSGSFLSYINTSADPLYGPQGLALTSDGHVVVADSGNHCFKVYRYLQ

- binding [5]: no binding
B4: human TRIM3 RING-B-box2 (2-153) (domain or fragment, UniProt O75382 2-153)
chain: AKREDSPGPEVQPMDKQFLVCSICLDRYQCPKVLPCLHTFCERCLQNYIPAQSLTLSCPVCRQTSILPEQGVSALQNNFFISSLMEAMQQAPDGAHDPEDPHPLSVVAGRPLSCPNHEGKTMEFYCEACETAMCGECRAGEHREHGTVLLRD
